Several values for one entry are separate records, joined by “and”; a condition that tells them apart may be missing. Equal values may be shown once.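 Tested at 5 concentrations; 48 h exposure; 96-well plates; endpoints linearly interpolated, else capped at highest concentration. GI50: concentration for 50% inhibition of growth. TGI: total growth inhibition.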
Tested on: NCI-H322M lung
Assay: DTP human tumour cell line panel, 48 h

Structure (SMILES)	GI50	TGI
COc1cccc(COc2cc(-n3cnc4ccccc43)sc2C(N)=O)c1	> 25 µM	> 25 µM
C(=C\c1ccccc1)/COc1ccccc1C(N1CCOCC1)n1nc2ccccc2n1 (configuration not stated)	–	44.6 µM
COc1ccc(-n2nc(C)c3c(Nc4ccc(NC(=O)Nc5ccc(Cl)c(C(F)(F)F)c5)cc4)ncnc32)cc1	1.75 µM	5.47 µM
Nc1cc(-c2ccc(Cl)cc2)nn1-c1nnc(/C=C/c2ccco2)c(=O)[nH]1	1.61 µM	30.9 µM
O=C(NCCN1CCNCC1)c1ccc(Nc2nc3ccccc3c3occc23)cc1	15.4 µM	30.6 µM
CC(=O)n1nc(-c2ccccc2)n(/N=C/c2ccc([N+](=O)[O-])o2)c1=O	–	35.3 µM
O=C(CC1(O)C(=O)Nc2c(Cl)ccc(Cl)c21)c1ccc(Cl)cc1Cl (configuration not stated)	–	74.4 µM
CCOc1ccc(Nc2c3ccccc3nc3ccccc23)cc1	2.04 µM and 1.46 µM	14.8 µM and 11.2 µM
COC(=O)N1N=C(c2ccccc2)C1c1ccccc1 (configuration not stated)	–	> 100 µM
CCOC(=O)c1ccc(Nc2nc3ccc(C(F)(F)F)cc3nc2C(=O)OCC)cc1	–	> 100 µM
CC1OC(c2ccc3c(c2O)C(=O)C2=C(C3=O)C3(O)C(=O)CC(C)(O)CC3(O)C=C2)CC(O)C1O (configuration not stated)	–	> 100 µM
O=C1C=CC(=O)C(CNc2ccc(C(=O)OCc3ccccc3)cc2)=C1	–	> 84.5 µM
COc1cccc2c1OCC1Cc3ccccc3OC21 (configuration not stated)	–	> 100 µM
CC(C)(C)OC(=O)NC1CCCC1=O (configuration not stated)	–	> 100 µM
O=C1c2cccc(O)c2C(=O)c2c(O)cc(CO)cc21	–	> 100 µM
Cc1nc(-c2cccnc2)sc1C(=O)/C=C/c1cccc([N+](=O)[O-])c1	–	> 100 µM
COP(=O)(OC)C(Nc1ccc(Cc2ccc(NC(c3ccco3)P(=O)(OC)OC)cc2)cc1)c1ccco1 (configuration not stated)	–	> 100 µM
c1ccc([P+](CCCCCCCC[P+](c2ccccc2)(c2ccccc2)c2ccccc2)(c2ccccc2)c2ccccc2)cc1	–	> 100 µM
C=C1C(=O)C23C(O)CC4C5(C)CCCC4(C(O)OC5)C2C(OC(C)=O)CC1C3O (configuration not stated)	–	23.8 µM
CCCCCCC(C)CCCCCCCCCCC(=O)O (configuration not stated)	–	> 100 µM
O=C(/C=C/c1cccc(O)c1)c1cccc(-n2cc(-c3ccc4ccccc4c3)[nH]c2=O)c1	1.66 µM	4.84 µM
CC(C)C(N)C(=O)NC(CCC(=O)NCCCCC(N)C(=O)NCCCNc1ccc([N+](=O)[O-])c2[nH]c3ccccc3c(=O)c12)C(N)=O (configuration not stated)	–	> 100 µM

Structure (SMILES)	GI50	TGI
CC1(C)CC(=O)C(CC2C(=O)c3ccccc3C2=O)C(=O)C1	–	> 100 µM
N#C/C(=C1\SC(N=Nc2ccc(Cl)cc2)C(=O)N1c1ccccc1)c1nc2ccccc2[nH]1 (configuration not stated)	–	96.1 µM
C=CC(=O)N1C/C(=C\c2ccc(Cl)cc2)C(=O)/C(=C/c2ccc(Cl)cc2)C1	–	3.13 µM
C=CC1=C(C)C2=NC1=CC1=NC(=CC3=C(C)C4=C(O)[C@H](C(=O)OC)C(=C5NC(=C2)[C@@H](C)[C@@H]5CCC(=O)O)C4=N3)C(CC)=C1C	–	> 100 µM
O=C(O)c1ccccc1C(=O)c1ccc2c(c1)Cc1ccccc1-2	–	> 100 µM
COc1cc2nc(-c3ccc(C(F)(F)F)cc3)cc(OCCCN3CCCC3)c2cc1OC	4.53 µM	21.7 µM
C[n+]1c(/C=C/c2ccc(O)c3ncccc23)[se]c2ccccc21	–	21.6 µM
CC(C)[Si](OC/C(=C/COC(C)(C)C)[C@H]1CC=C(C(=O)c2ccccc2N2CN(C)C(=O)N(C)C2)C1)(C(C)C)C(C)C	–	31.4 µM
CC(=O)n1c(=O)c2cc3c(=O)n(-c4cccc(C#N)c4)c(=O)c3cc2c1=O	–	> 100 µM
CSc1ccc(N(C)c2nc(C)nc3c2CCC3)cc1	19.9 µM	> 100 µM
CCN(CC)CCO/N=C1\CC[C@H]2[C@@H]3CCc4cc(OC)ccc4[C@H]3CC[C@]12C	–	7.71 µM
Cc1ccc(NC(=O)/C(Cc2cc(=O)oc3cc(O)ccc23)=N\NC(=O)C[N+](C)(C)C)cc1C	–	> 100 µM
CC1=NN(C(=O)c2ccncc2)C(=O)C1N=Nc1ccc(F)cc1 (configuration not stated)	–	> 100 µM
CC1(C)OC2COC3([C@@H]4OC(C)(C)O[C@@H]4CO)OC(C)(C)OC3C2O1 (some centres not stated)	–	> 100 µM
Clc1ccc2c(c1)N(c1ncnc3ccc(-c4cnc5[nH]ncc5c4)cc13)CC2	0.412 µM	> 100 µM
CC1(C)N=C2C(=O)c3c([nH]c4ccccc34)[C@]3(C)CCC1CC23 (some centres not stated)	–	> 6.25 µM
C[C@H]1[C@H](C)CC[C@]2(C(=O)OC3OC(CO)C(O)C(O)C3O)CC[C@]3(C)C(=CC[C@@H]4[C@@]5(C)C[C@H]6OC(=O)c7cc(O)c(O)c(O)c7-c7c(cc(O)c(O)c7O)C(=O)O[C@@H]6C(CO)(CO)[C@@H]5CC[C@]43C)[C@H]12 (some centres not stated)	–	> 100 µM
CC(C)Oc1ccc(C(=O)Cn2ccnc2)cc1-n1c(CN2CCN(C(=O)COc3ccc(Cl)cc3)CC2)nc2ccccc2c1=O	28.7 µM	> 100 µM
C[C@]12CC[C@@H]3c4ccc(O)cc4CC[C@H]3[C@@H]1C/C(=C\c1ccc(C#N)cc1)C2=O	–	> 100 µM
Cc1cc(NS(=O)(=O)c2ccc(NC(NC(=O)C(C(F)(F)F)C(F)(F)F)(C(F)(F)F)C(F)(F)F)cc2)no1	–	> 100 µM
COc1ccc2c(NCCCCCCNc3c4ccccc4nc4cc(OC)ccc34)c3ccccc3nc2c1	–	3.31 µM
COc1ccccc1NC(=O)/C(=C/c1ccccc1)C(C)=O	–	> 100 µM

Structure (SMILES)	GI50	TGI
CCN1C(=O)C(=C/C=C/c2ccc(N(CC)CC)cc2)C(=O)N(CC)C1=S	–	> 100 µM
O=C(O)/C=C\C(=O)Nc1ccc(S(=O)(=O)c2ccc(NC(=O)/C=C\C(=O)O)cc2)cc1	–	> 100 µM
Cc1cccc(C)c1N1C(=O)C(=O)C(c2nc3ccccc3s2)C(=Nc2cccc3c(=O)[nH][nH]c(=O)c23)C1=O (configuration not stated)	–	> 100 µM
O=C1c2cccc(O)c2C(=O)c2c(OC3OC(CO)C(O)C(O)C3O)cccc21 (configuration not stated)	–	> 100 µM
O=C1c2ccccc2-c2c1c1c(NCCCO)nc3ccccc3c1n2Cc1ccccc1	22.1 µM	68 µM
O=[N+]([O-])c1cccc2c(N=Nc3ccc4ccccc4c3O)c(O)cc(S(=O)(=O)O)c12	–	> 100 µM
CCOC(=O)NC(Nc1c(F)c(F)c(F)c(F)c1F)(C(F)(F)F)C(F)(F)F	–	> 100 µM
COc1cc(C2c3cc4c(cc3[C@@H](Nc3ccc5c(c3)OCCO5)C3COC(=O)[C@H]23)OCO4)cc(OC)c1O (some centres not stated)	–	31 µM
CC(C)[O-].CC(C)[O-].CN(CCN(C)Cc1cc(F)cc(F)c1[O-])Cc1cc(F)cc(F)c1[O-].[Ti+4]	0.691 µM	4.83 µM
COc1cc2[nH]c(-c3ccccc3)cc(=O)c2c(OC)c1OC	–	> 100 µM
CCCCCCCCCCCCCC[n+]1cccc(C(N)=O)c1	7.72 µM	23.2 µM
Cc1cccc(N(CC(=O)O)S(=O)(=O)c2ccccc2)c1	–	> 100 µM
COc1cc(C(O)c2ccc3c(c2)OCO3)cc(OC)c1OC (configuration not stated)	–	> 100 µM
COc1ccc(C2=C(N3CCc4ccccc43)C(=O)NC2=O)cc1	> 25 µM	> 25 µM
CCN(CCCl)c1cc(CN(C)C)cc(NC(=O)c2ccc(C(=O)Nc3cccc(CN(C)C)c3)cc2)c1	–	7.47 µM
[2H]c1nc(=Nc2cc(NC(=O)C=C)c(N(C)CCN(C)C)cc2OC)[nH]c(-c2cn(C([2H])([2H])[2H])c3ccccc23)c1[2H]	0.1 µM	1.86 µM
CC1c2ccccc2N=C2SC(=S)N3CCN=C3N21 (configuration not stated)	> 100 µM	> 100 µM
COc1ccc(NC(C)c2ccncc2)cc1 (configuration not stated)	–	44.7 µM
O=C(O)CN(CC(=O)O)C(C(=O)O)c1ccccc1 (configuration not stated)	–	> 100 µM
O=C(CC(C(=O)c1ccco1)c1ccco1)c1ccco1 (configuration not stated)	–	> 100 µM
CCOC(=O)N1CCN(CCCCCOc2ccccc2C2CCCCC2)CC1	13.9 µM	28.4 µM
Cc1cc(C)n(C2=NS(=O)(=O)c3ccccc3N2C)n1	–	> 100 µM

Structure (SMILES)	GI50	TGI
CCOC(=O)C1(Cc2ccc3ccccc3c2)CCCCC(=O)N1 (configuration not stated)	–	> 100 µM
CC(C)C1=C(O)C2=C(C(=O)C1=O)C1(C)CCCC(C)(C)C1C(O)C2OC=O (configuration not stated)	–	21.8 µM
CCOP(=O)(OCC)OC1CC(n2cc(C)c(=O)n(C)c2=O)OC1CO[Si](C)(C)C(C)(C)C (configuration not stated)	–	> 100 µM
O=C1C2=Nc3ccccc3C(O)(C(=O)O)N2c2ccccc21 (configuration not stated)	–	> 100 µM
Cc1cccc(N=Nc2ccc(N=Nc3c(O)ccc4ccccc34)cc2C)c1	–	> 100 µM
Cn1c(=O)nc2n(-c3ccc(Cl)c(C(F)(F)F)c3)c3ccccc3nc-2c1=O	–	> 86 µM
O=C1CNS(=O)(=O)N1	–	> 100 µM
O=C1c2ccccc2-c2c1c1ccccc1c(=O)n2CCNCCn1c2c(c3ccccc3c1=O)C(=O)c1ccccc1-2	> 25 µM	> 25 µM
COC(=O)C1(O)C(c2ccccc2)=NC2(C)CCCC21 (configuration not stated)	–	> 100 µM
O=C1/C(=C/c2cccc([N+](=O)[O-])c2)Sc2scc(-c3ccc([N+](=O)[O-])cc3)[n+]21	–	> 100 µM
CN1c2ccccc2SC2C(c3ccccc3)=NOC21 (configuration not stated)	–	> 100 µM
O=C(/C=C/c1ccc2c(c1)OCO2)Cc1nc2ccccc2[nH]c1=O	–	> 100 µM
COc1ccc(F)c(F)c1C(=O)c1cnc(NC2CCN(S(C)(=O)=O)CC2)nc1N	0.804 µM and 0.48 µM	> 22.8 µM
COC(=O)C1C(=O)N(CCc2c[nH]c3ccccc23)C[C@@H]2CCC(=O)C[C@H]12 (some centres not stated)	–	> 100 µM
CCn1c(-c2nonc2N)nc2ccncc21	> 25 µM	> 25 µM
COc1cc(/C=C2\CCC(C)/C(=C\c3cc(OC)c(OC)c(OC)c3)C2=O)cc(OC)c1OC (configuration not stated)	–	> 100 µM
C=C1C(=O)C23C(O)C1CC[C@H]2C12CCCC(C)(COC(C)=O)[C@H]1[C@H](O)[C@]3(O)OC2 (some centres not stated)	–	9.16 µM
CC(=O)[CH-]C(=O)c1ccccc1.CC(=O)[CH-]C(=O)c1ccccc1.CC1(C)OCC(C2OC3OC(C)(C)OC3C2[O-])O1.CC[O-].[Ti+4] (configuration not stated)	11.2 µM	31.6 µM
C/C1=C\CC[C@@](C)(O)[C@@H]2C[C@H](CC/C(C)=C/CC1)C1(CC1)C(=O)O2	28.6 µM	> 100 µM

Source: PubChem BioAssay (NCI)
